The campaign covered roughly 48,000 compounds. About 450 (0.94%) were called active. Inconclusive results (about 19%) are left out. Calls follow the shape of the dose curve; as a rule, active = well fitted inhibition curve with a large enough effect; inconclusive = small, poorly fitted or top-dose-only effect; inactive = no such curve, though single readings can be large or run the other way. This is one part of the list.
Experiment: Primary qHTS for Identification of Small Molecule Inhibitors of Huntingtin Promoter Activity; also: nearly all actives have a fitted effect of over 50% in size
Conditions: HEK293 HTT promoter firefly luciferase reporter (activity 0% = vehicle and -100% = no light), 24 h; series mostly up to 57.5 µM; activity change, negative = inhibition: at the top concentration
Outline: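 Firefly luciferase signal from promoter-reporter HEK293 cells was scaled between vehicle (0%) and zero RLU (-100%). Compounds were tested at final concentrations of up to 57.5 uM over 24 h at 37 degrees C. PTC124 at 50 uM final served as control inhibitor.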
Potency is read from the fitted curve at half-maximal effect.

| SMILES | activity change, negative = inhibition | Potency |
| --- | --- | --- |
| CCOc1cc(S(=O)(=O)n2ccnc2C(C)C)ccc1Cl | inactive: -8.25% | – |
| CCn1cc(C(=O)N2CCN(c3ccccc3F)CC2)c(=O)c2cc(S(=O)(=O)N(C)C3CCCCC3)ccc21 | inactive: -4.06% | – |
| CCOC(=O)c1c(C)oc2nc(C)nc(NCc3ccc(Cl)cc3)c12 | inactive: 12.5% | – |
| COc1ccc(-c2cc3ccc(O)c(CN4CCOCC4)c3oc2=O)cc1 | inactive: 5.9% | – |
| CC(=O)N1CCc2cc(Br)cc(S(=O)(=O)N3CCC(C(=O)N(C)c4cc(C)ccc4C)CC3)c21 | inactive: 2.53% | – |
| COc1cc(NC(=O)c2ccccc2)ccc1NC(=O)c1cc2ccccc2o1 | inactive: 4% | – |
| Cc1cccc(NC(=O)CSc2nc(-c3ccco3)nc3cc(=O)[nH]n23)c1 | inactive: -9.95% | – |
| COc1ccc(-c2ccc3c(N)c(C(=O)NCc4ccc(Cl)cc4)sc3n2)cc1 | inactive: 4.27% | – |
| COC(=O)c1c(SC)nc2ccccc2c1OCc1ccccc1C | inactive: -27.4% | – |
| O=C(CCn1c(=O)c2ccccc2n(Cc2ccc(F)cc2Cl)c1=O)NCc1ccc2c(c1)OCO2 | inactive: -14.4% | – |
| Cc1cccc(C)c1NC(=O)Cn1c(=O)n(CC2CCC(C(=O)NCCc3ccccc3)CC2)c(=O)c2ccccc21 (stereo not given) | inactive: -0.922% | – |
| CCOC(=O)c1noc2ncnc(Nc3ccc(F)cc3F)c12 | inactive: -22% | – |
| Cc1ccc(CNC(=O)C2CCN(c3nc4ccccc4n(C)c3=O)CC2)cc1 | inactive: -8.9% | – |
| CCOC(=O)CSc1nc2c(sc3ccccc32)c(=O)n1CCc1ccccc1 | inactive: -9.34% | – |
| O=[N+]([O-])c1cc(-c2nc(-c3ccccc3)no2)ccc1N1CCN(c2ccccc2)CC1 | inactive: -7.56% | – |
| Cc1ccc(NC(=O)Cn2nnc(-c3nc(-c4ccncc4)no3)c2N)cc1 | inactive: 0.956% | – |
| CCCOc1ccc(CNC(=O)C(CC)n2nc(C)c3sc4ccccc4c3c2=O)cc1 (stereo not given) | inactive: 0.407% | – |
| CCOc1ccc2nc(C)cc(Nc3ccccc3OCC)c2c1 | inactive: -28.1% | – |
| Cc1ccc(Cl)cc1N1CCN(C(=O)CCC(=O)Nc2ccc3nc(N4CCC(C)CC4)cc(C)c3c2)CC1 | inactive: -18.1% | – |
| Cc1ccc(C(=O)O)cc1Nc1nc2ccccc2n2nnnc12 | inactive: 61.4% | – |
| COCCNC(=O)c1c(C)oc2nc(C)nc(N3CCOCC3)c12 | inactive: 2.1% | – |
| CCOC(=O)c1c(NC(=O)c2ccccc2Cl)sc2c1CCCC2 | inactive: -25.2% | – |
| O=C(NCCCN1CCN(c2ccc(F)cc2)CC1)Nc1ccc(Cl)cc1 | inactive: -23.9% | – |
| Cc1ccc(-c2nnc(SCc3ccccc3C#N)o2)cc1 | inactive: 11% | – |
| COc1ccc2c(c1)c(CC(=O)O)c(C)n2C(=O)c1ccc(Cl)cc1 | inactive | – |

| SMILES | activity change, negative = inhibition | Potency |
| --- | --- | --- |
| COc1cccc(-c2nc(CS(=O)(=O)CC(=O)NCc3ccc(C)cc3)c(C)o2)c1 | inactive: -8.06% | – |
| Cc1ccc2c(c1)NC(c1cccnc1)=NC(c1ccc(F)cc1)=N2 | inactive: -8.79% | – |
| Cc1ccc(C)c(NC(=O)Cn2c(=O)n(Cc3ccco3)c(=O)c3oc4ccccc4c32)c1 | inactive: 4.93% | – |
| Nc1nc2ccc(OC(F)(F)F)cc2s1 | inactive | – |
| Oc1cc(O)c2c(c1)O[C@H](c1ccc(O)c(O)c1)[C@H](O)C2 | inactive: 11.4% | – |
| Cc1cccc(OCC(=O)OCc2cc(=O)n3nc(C4CCCCC4)sc3n2)c1 | inactive: -0.319% | – |
| CCOC(=O)C(CC)n1nc(C)n2c(cc3occc32)c1=O (stereo not given) | inactive: -17% | – |
| CN1CCC(=C2c3ccccc3CCc3cccnc32)CC1 | inactive: 8.59% | – |
| COc1ccnc2c1CCCCC2S(=O)c1nc2ccccc2[nH]1 (stereo not given) | inactive: 18.2% | – |
| Cc1csc2nc(-c3cccc(NC(=O)c4ccccc4Cl)c3)cn12 | inactive: 4.34% | – |
| Cc1ccc(S(=O)(=O)NCC(c2ccc(N(C)C)cc2)N2CCOCC2)cc1 (stereo not given) | inactive: -14.2% | – |
| O=C(NC1CCCCCC1)C1CCN(C(=O)N2CCOc3ccccc32)CC1 | inactive: 8.43% | – |
| COc1cc(OC)c(N(C)C(=O)Cn2ncc3c([nH]c4ccccc43)c2=O)cc1Cl | inactive: -2.66% | – |
| O=c1c2cc3c(cc2nc2sc(Nc4ccc(F)c(Cl)c4)nn12)OCO3 | inactive: -11.2% | – |
| COc1cc(/C=C(\C#N)c2nc3ccccc3n2C)cc(OC)c1OC | inactive: 42.1% | – |
| Cn1c(=O)c2c(-c3cccc(Br)c3)n(CCO)cc2n(C)c1=O | inactive: -24.6% | – |
| CCN1CCN(c2oc(/C=C/c3ccccc3OC)nc2C#N)CC1 | inactive: -4.4% | – |
| CCOC(=O)c1c(-c2ccc(C)cc2)csc1NC(=O)c1nc(SCC)ncc1Cl | inactive: 11.9% | – |
| Cc1ccc(-n2c(=O)c3ccc(C(=O)NCc4ccccc4Cl)cc3n(Cc3ccccc3F)c2=O)cc1 | inactive: -11% | – |
| COc1cccc(NS(=O)(=O)c2ccc3[nH]cc(C(=O)N4CCCCCC4)c(=O)c3c2)c1 | inactive: -4.06% | – |
| CC1CCN(CCCNC(=O)c2cc(Sc3ccc(F)cc3)nc3ccccc23)CC1 | inactive: -19.8% | – |
| Nc1cccc(-c2cn3ccsc3n2)c1 | inactive: 74.3% | – |
| O=C(NC1CC(=O)N(c2cccc(F)c2)C1)C1CC1 (stereo not given) | inactive: -1.25% | – |
| Cc1ccc(NC(=O)c2oc3ccccc3c2NC(=O)c2ccccc2C)cc1 | inactive: -4.09% | – |
| COc1ccc(Cn2c(=O)c3cccnc3n(Cc3cccc(OC)c3)c2=O)cc1 | inactive: -21.5% | – |

| SMILES | activity change, negative = inhibition | Potency |
| --- | --- | --- |
| CSc1nnc(NC(=O)Cc2coc3cc(C)ccc23)s1 | inactive: 15.4% | – |
| CCCCC(CC)CNC(=O)c1ccc2c(=O)n(Cc3ccc(OC)cc3)c(=O)[nH]c2c1 (stereo not given) | inactive: -2.45% | – |
| Cn1nc(C(=O)NCc2ccc(Cl)cc2)c2c1-c1ccccc1SC2 | inactive: -15.1% | – |
| Cc1ccc(N(Cc2cccs2)C(=O)c2ccc(Br)o2)cc1 | inactive: -17.5% | – |
| Cc1cc(=O)n2nc(N3CCC(C(=O)Nc4ccc(C)c(Cl)c4)CC3)sc2n1 | inactive: -10.9% | – |
| Cc1c(C)c2c(c(C)c1O)CCC(C)(COc1ccc(CC3SC(=O)NC3=O)cc1)O2 (stereo not given) | inactive | – |
| COc1ccc(CNC(=O)Cc2c(C)c3c(cc(C)c4c(C)c(C)oc43)oc2=O)cc1 | inactive: -3.84% | – |
| CCSc1ncc(Cl)c(C(=O)Nc2nc3ccc(OC)cc3s2)n1 | inactive: 1.27% | – |
| CCc1nonc1NC(=O)c1oc2ccccc2c1C | inactive: 16.6% | – |
| COc1ccc(CNC(=O)CCS(=O)(=O)c2ccc3c(c2)oc(=O)n3C)cc1 | inactive: -9.85% [at 11.5 µM] | – |
| CCOC(=O)N1CCC(NC(=O)c2ccc3c(c2)N(Cc2ccc(F)cc2)C(=O)c2ccccc2S3(=O)=O)CC1 | inactive: -30.5% | – |
| Cc1ccc(CNC(=O)c2ccc3c(O)c(S(=O)(=O)c4ccccc4)c(=O)[nH]c3c2)cc1 | inactive: -0.887% | – |
| CCOc1ccc(NC(=O)C(NS(=O)(=O)c2ccc3c(c2)CCN3C(C)=O)C(C)C)cc1 (stereo not given) | inactive: -19.9% | – |
| CCCCC(CC)COC(=O)c1ccccc1C(=O)O (stereo not given) | inactive: -1.93% [at 116 µM] | – |
| O=C(CSc1nc2ccccc2nc1Cc1ccc(Cl)cc1)NCCc1ccccc1 | inactive: -6.13% | – |
| CCOc1ccccc1NC(=O)c1nnn(CC(=O)Nc2ccc(OC)c(OC)c2)c1N | inactive: -18.5% | – |
| COc1ccc(OC)c(C(C)NC(=O)Cn2c(=O)cc(C)c3c(C)nn(-c4ccc(C)cc4)c32)c1 (stereo not given) | inactive: -1.9% | – |
| Cc1ccc(C)c(N2CCN(Cc3csc(C)c3C)CC2)c1 | inactive: -21.6% | – |
| COc1ccccc1-c1cc(C(=O)N2CCCCC2C)no1 (stereo not given) | inactive: 45.9% | – |
| CCCCC(=O)Nc1ccc2nc(SCC(=O)N3CCCC3)sc2c1 | inactive: 23.8% | – |
| Nc1c(-c2nc(-c3cccs3)no2)nnn1-c1cccc(Cl)c1 | inactive: 54.4% | – |
| COc1ccc(CNC(=O)c2nn(-c3ccccc3C)nc2CO)cc1 | inactive: -19.7% | – |
| CCc1ccc(Nc2ncnc3c2cnn3-c2cc(Cl)ccc2C)cc1 | inactive: -12.5% | – |
| COc1cccc(CNC(=O)C(NS(=O)(=O)c2ccc3c(c2)CCN3C(C)=O)C(C)C)c1 (stereo not given) | inactive: -13.1% | – |
| CCOc1ccccc1CC1C(=O)Nc2ccc(Br)cc21 (stereo not given) | – | active: 17.8 µM |

| SMILES | activity change, negative = inhibition | Potency |
| --- | --- | --- |
| CC=C(C(=CC)c1ccc(O)cc1)c1ccc(O)cc1 | inactive: -31% | – |
| CCn1cc(C(=O)OCC(=O)Nc2ccc(F)cc2F)c(=O)c2ccc(C)nc21 | inactive: -12.9% | – |
| Cc1cccc(-c2nc(Cn3c(=O)cc(-c4ccccc4)c4c(C)nn(C)c43)c(C)o2)c1 | inactive: 4.01% | – |
| CCCn1c2ccccc2c2cnn(CC(=O)NCCc3ccccc3)c(=O)c21 | inactive: -23.4% | – |
| COC(=O)c1ccc(Cn2c(=O)cc(C(F)(F)F)c3c(C)nn(C)c32)cc1 | inactive: -17.6% | – |
| CCN(c1ccc(OC)cc1)S(=O)(=O)c1ccc2[nH]c(=O)ccc2c1 | inactive: -26.3% | – |
| CCOc1ccc(S(=O)(=O)N(CC(=O)NCCSc2ccccc2)c2ccccc2)cc1 | inactive: -9.56% | – |
| O=C(Cn1c2ncccc2c(=O)n1-c1ccccc1)Nc1ccc(F)c(F)c1 | inactive: 15% | – |
| Cc1cc(N2CCCCC2)nc2ccc(NC(=O)/C=C/c3ccccc3Cl)cc12 | inactive: -28.1% | – |
| CCc1ccccc1NC(=O)NCc1ccc2c(c1)CCN2C(=O)c1ccccc1 | inactive: -9.77% | – |
| O=C(Nc1ccccc1C(=O)OCc1cc(=O)n2c3c(sc2n1)CCCC3)c1cccc(Cl)c1 | inactive: -9.04% | – |
| O=C(CSc1nccn1Cc1ccccc1)NCc1ccccc1Cl | inactive: 4.53% | – |
| CCOC(=O)CC(NC(=O)N1CCC(CN2CCC(C)CC2)CC1)c1ccccc1 (stereo not given) | inactive: -3.19% | – |
| CC(C)Cn1cc(NC(=O)N2CCN(c3ccccc3F)CC2)c2ccccc2c1=O | inactive: -9.27% | – |
| CC1(C)[C@@H]2CC[C@@]1(C)C(=O)C2 | inactive: 6.63% | – |
| Cc1cccc(CNC(=O)CCn2ccc3cc(S(=O)(=O)N4CCCC4)ccc32)c1 | inactive: -26.1% | – |
| COc1ccc(-c2cn3nc(N4CCCC(C(=O)NCc5ccccc5Cl)C4)sc3n2)cc1 (stereo not given) | inactive: -6.42% | – |
| COc1ccc(OC)c(CCNC(=O)c2cnn(-c3ccccc3)c2C2CCN(C(=O)OC(C)(C)C)CC2)c1 | inactive: -16% | – |
| O=c1c(N2CCN(c3cccc(C(F)(F)F)c3)CC2)csc2ccc(Cl)cc12 | inactive: 6.06% | – |
| COc1cc(OC)cc(N2CCN(S(=O)(=O)c3ccc(-n4cnnn4)cc3)CC2)c1 | inactive: -1.27% | – |
| COC(=O)c1cc2oc3ccccc3c2n1Cc1cc(C)ccc1C | inactive: -10.1% | – |
| Cc1nn(C)c2c1c(-c1ccccc1)cc(=O)n2C(C)C(=O)NCc1ccc(F)cc1 (stereo not given) | inactive: 0% | – |
| O=C1CC(c2ccccc2)Cc2[nH]c(=O)c(-c3nc(-c4ccc(Cl)cc4)cs3)cc21 (stereo not given) | inactive: -33.8% | – |
| CCN1CCN(C(c2cccc(F)c2)c2c(O)cc(C)n(Cc3ccco3)c2=O)CC1 (stereo not given) | inactive: -4.32% | – |
| CC(=O)c1cccc(NC(c2ccc(F)cc2)c2nnc(-c3ccccc3)o2)c1 (stereo not given) | inactive: -27.1% | – |

— PubChem BioAssay AID1508623 (National Center for Advancing Translational Sciences (NCATS), 2021)
